# Experimental data published in the supplement of paper PMC9446081.
# Among all 39,000 compounds or so, about 220 (0.56%) showed activity. The list shows a part of the results.
# Tested on: Escherichia coli K-12 BW25113
# Assay: relative growth (OD600 normalised to plate interquartile mean) (fraction); higher = less growth inhibition, active = 0.2 or less
# Settings: 50 µM; LB; incubation time: overnight (16-24 h)
# 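Also: static incubation at 37 °C against the wild-type strain, values averaged over two biological replicates.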
row,Structure (SMILES),relative growth
1,COc1ccccc1S(=O)(=O)N1C[C@H](O)COC[C@H]2O[C@@H](CC(=O)O)CC[C@@H]21,inactive: 0.954
2,C[C@H](CO)N1C[C@H](C)[C@H](CN(C)Cc2ccc(C(F)(F)F)cc2)Oc2c(NC(=O)c3ccc(-c4nccs4)cc3)cccc2C1=O,inactive: 1.02
3,Cc1ccc(S(=O)(=O)Nc2ccc3c(c2)C(=O)N([C@H](C)CO)C[C@@H](C)[C@@H](CN(C)C(=O)Nc2c(C)noc2C)OCCCC[C@@H](C)O3)cc1,inactive: 0.994
4,Cc1noc(C)c1S(=O)(=O)N(C)C[C@H]1Oc2ccc(NC(=O)CCC(F)(F)F)cc2CC(=O)N([C@H](C)CO)C[C@H]1C,inactive: 1.02
5,COc1ccccc1-c1ccc2c(c1)O[C@H](CN(C)S(=O)(=O)c1ccccc1)[C@@H](C)CN([C@@H](C)CO)S2(=O)=O,inactive: 1.06
6,C[C@@H]1CN([C@@H](C)CO)C(=O)Cc2cc(NC(=O)CCN3CCOCC3)ccc2O[C@H]1CN(C)Cc1ccccc1,inactive: 1.02
7,C[C@@H]1CCCCO[C@@H](CN(C)Cc2ccc(Cl)c(Cl)c2)[C@H](C)CN([C@H](C)CO)C(=O)c2cc(NC(=O)NC3CCCCC3)ccc2O1,inactive: 1.04
8,NC1CONC1=O (configuration not stated),inactive: 1.03
9,C[C@@H]1CN([C@@H](C)CO)C(=O)c2cccc(NS(=O)(=O)c3cn(C)cn3)c2O[C@@H]1CN(C)Cc1ccc2c(c1)OCO2,inactive: 0.962
10,C[C@H](CO)N1C[C@H](C)[C@H](CN(C)S(=O)(=O)c2cn(C)cn2)Oc2ccc(NC(=O)c3ccncc3)cc2CC1=O,inactive: 0.976
11,C[C@H]1CN([C@@H](C)CO)C(=O)c2cccc(NC(=O)c3ccc(-c4nccs4)cc3)c2O[C@@H]1CN(C)Cc1ccc(C(=O)Nc2ccccc2N)cc1,inactive: 1.08
12,COC(=O)Cn1c(Cl)nc2c1c(=O)n(C)c(=O)n2C,inactive: 0.999
13,COc1cccc(S(=O)(=O)Nc2ccc3c(c2)[C@H]2C[C@@H](CC(=O)N4CCCCC4)O[C@@H](CO)[C@H]2O3)c1,inactive: 1.01
14,C[C@@H]1CN([C@H](C)CO)C(=O)c2cc(NS(=O)(=O)c3cccs3)ccc2O[C@@H]1CN(C)Cc1ccncc1,inactive: 0.985
15,C[C@@H]1CN([C@@H](C)CO)C(=O)Cc2cc(NC(=O)Cc3ccccc3)ccc2O[C@H]1CN(C)S(C)(=O)=O,inactive: 0.973
16,O=C(NCc1ccccc1)[C@@]1(CCS(=O)(=O)c2ccccc2)COC(c2ccc(OCCCO)cc2)=N1,inactive: 0.989
17,O=C(Cn1cc(COc2ccc3ccccc3c2)nn1)NS(=O)(=O)c1ccccc1OC(F)(F)F,inactive: 0.991
